Data taken from PubChem BioAssay AID1508623 (National Center for Advancing Translational Sciences (NCATS), 2021).
In all, about 48,000 compounds went through this assay and about 450 (0.94%) were called active. Another 19% or so got no clear call; they are omitted. Calls come from the whole dose curve; as a rule, active = well fitted inhibition curve with a large enough effect; inconclusive = small, poorly fitted or top-dose-only effect; inactive = no such curve, though single readings can be large or run the other way. The list shows a part of the results.

experiment: Primary qHTS for Identification of Small Molecule Inhibitors of Huntingtin Promoter Activity; details: HEK293 HTT promoter firefly luciferase reporter (activity 0% = vehicle and -100% = no light), 24 h; series mostly up to 57.5 µM; activity change, negative = inhibition: at the top concentration; note: nearly all actives have a fitted effect of over 50% in size
How it was run: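 Firefly luciferase readout (Dual-Glo, 10 min RT) after 24 h, 37 °C compound exposure (final up to 57.5 uM) of HEK293 reporter cells cultured 24 h beforehand; PTC124 at 50 uM final as control inhibitor; activity scaled vehicle 0%, zero RLU -100%.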

Activity change, negative = inhibition, inactive:
Cc1nc(-c2ccc(S(=O)(=O)NCc3ccccc3Cl)cc2)co1 -21.5%
CCCn1c2ccccc2c2cnn(CC(=O)N3CCCC(C(=O)OCC)C3)c(=O)c21 (configuration not stated) -20.2%
Cc1ccc(C(=O)Nc2cnc3ccccn3c2=O)cc1 62.7%
CCN1CCN(C(=O)Cn2ncc3c4ccccc4n(Cc4c(C)cc(C)cc4C)c3c2=O)CC1 -13.5%
CCc1ccc(NC(=O)CSc2nnc(CC)c(CC)n2)cc1 -8.08%
Cc1ccc(Cn2c(CN3CCC(C(=O)O)CC3)cc3ccccc32)cc1 -20.8%
COc1ccc(C(=O)Nc2nc3c(s2)Cc2c(Br)ccc(OC)c2-3)cc1OC -24.4%
Cc1cc(C)cc(N(CC(=O)Nc2c(C)cc(C)cc2C)S(=O)(=O)c2c(C)nn(C)c2C)c1 -25.7%
CCN(CC)CCCNC(=O)c1sc2nc3n(c(=O)c2c1C)CCCCC3 -4.83%
CN(CC(=O)Nc1ccc(F)cc1F)S(=O)(=O)c1cccc2nsnc12 -15.1%
CCOc1cc(-c2nnc(SCC(=O)NC3CCCCC3)nc2-c2ccc(OC)c(OCC)c2)ccc1OC -8.07%
CCOc1ccccc1NC(=O)CCS(=O)(=O)c1ccc2c(c1)oc(=O)n2C -16.4% [at 11.5 µM]
CC(C)NC(=O)C1CCCN(c2ncnc3onc(-c4ccc(F)cc4)c23)C1 (configuration not stated) -13.8%
COc1ccc2oc(-c3cccc(NC(=O)c4cc([N+](=O)[O-])ccc4N4CCOCC4)c3)nc2c1 0.877%
CCOC(=O)C(C)Sc1nnc2cc(C)c3ccccc3n12 (configuration not stated) 5.9%
COc1cc(C2c3c(-c4c(C)cc(C)cc4O)n[nH]c3C(=O)N2Cc2ccco2)cc(OC)c1OC (configuration not stated) -33%
Cc1ccc(-n2ncc3c(NCCCN(C)C)ncnc32)cc1Cl -4.51%
O=C(Cn1ncc2c3ccccc3n(Cc3ccccc3)c2c1=O)NCc1ccccn1 14.7%
COc1ccc(Nc2ncc3c(n2)CCN(Cc2sccc2C)C3)c(OC)c1 -7.38%
O=[N+]([O-])c1ccc(S(=O)(=O)N2CCn3cccc3C2c2ccc(Br)cc2)cc1 (configuration not stated) -1.35%
COc1ccc(C(CNC(=O)c2oc3cc(Br)ccc3c2C)N2CCCCC2)cc1 (configuration not stated) -5.18%
CCOC(=O)CN1C(=O)N(c2ccc(C)c(C)c2)S(=O)(=O)c2ccccc21 -23.3%
COc1ccc(NC(=O)CC2C(=O)N(c3ccccc3)C(=O)N2CCc2sccc2C)cc1 (configuration not stated) -29.4%
CCOc1ccc(CNC(=O)C2CCCN(c3nn4cc(-c5ccc(OC)cc5)nc4s3)C2)cc1 (configuration not stated) 0.95%
CC(C)CCNc1nc2c(-c3ccccc3)nnn2c2ccccc12 -10.2%
Cc1ccc(C(=O)CSc2nc3cc(C(=O)NC4CCCC4)ccc3c(=O)n2CC2CCCO2)c(C)c1 (configuration not stated) 0.989%
Oc1ccc(OCc2ccccc2)cc1
COc1cccc(-c2cc(C(=O)Nc3cnn(Cc4ccc(Cl)cc4Cl)c3)no2)c1 -28.8%
COc1cccc(NC(=O)c2oc3ccccc3c2NC(=O)c2ccccc2C)c1 -20.7%
O=C(CC1N=C2c3ccccc3N=C(SCc3cccc(F)c3)N2C1=O)NCc1cccs1 (configuration not stated) -28.3%
COC(=O)c1ccccc1NC(=O)CSc1n[nH]c(CC(C)C)n1 -22%
Cc1ccc(CNC(=O)CCNS(=O)(=O)c2ccc3c(c2)CCCC(=O)N3)cc1 -25.6%
CCCCN(CCCC)CCCNC(=O)c1ccc2nc(N3CCCCC3)sc2c1 -23.1%
COc1ccc(-c2nnn3c2nc(NCCc2ccc(OC)c(OC)c2)c2ccccc23)cc1 -10.3%
COc1ccc2c(c1)c1c(c(=O)n(-c3cc(Cl)ccc3C)c(=O)n1CC(=O)N1CCCC1)n2C -8.63%
COc1ccc(OC)c(Nc2nc3ccccc3nc2-n2nc(C)cc2C)c1 2.15%
Cc1ccccc1NC(=O)c1c(NC(=O)c2ccccc2F)sc2c1CCC(C)C2 (configuration not stated) -1.95%
COc1ccccc1NC(=O)c1ncn(-c2ccccc2)n1 64.7%
COc1ccc(Cn2ccc3nc(C)c(C(=O)N4CCN(c5ccc(F)cc5)CC4)cc3c2=O)cc1 -7.65%
Cc1ccc(Sc2c(C)nn(C(C)(C)C)c2OC(=O)CC(C)C)cc1 -19.3%
Cc1c(C(=O)OC2CCC(C)CC2)[nH]c2c1C(=O)CC(c1ccc(F)cc1)C2 (configuration not stated) -26.5%
Cc1cccc2c(=O)cc(CSc3ccccc3NC(=O)c3cccc(Cl)c3)[nH]c12 -1.73%
Cc1ccc2nc(CSc3nnc(NC(=O)C(C)C)s3)cc(=O)n2c1 -2.04%
CCOc1ccc(-c2cc3c(=O)n(Cc4nc(-c5ccc(OCC)c(OC)c5)oc4C)ccn3n2)cc1Cl 5.29%
CC(C)(C)c1[nH]cnc1C=c1[nH]c(=O)c(=Cc2ccccc2)[nH]c1=O -30.4% [at 116 µM]
Cc1cccc(OCC(=O)Nc2c(C(=O)Nc3ccc(F)cc3)oc3ccccc23)c1 7.43%
Cc1cccc(N2C(=O)CSC23C(=O)N(C)c2ccccc23)c1 (configuration not stated) -20.5%
CCc1ccc(-n2nc(C)c3c(C)cc(=O)n(CC(=O)Nc4cc(Cl)ccc4OC)c32)cc1 -18%
CCOc1ccc(OCC)c(NC(=O)c2cnn(-c3ccc(F)cc3)c2-n2cccc2)c1 -33.3%
COc1cc(NC(=O)NCCc2c(C)nn(C)c2C)cc(OC)c1OC -15.8%
CCCN1CCN(c2nnc(-n3cccc3C(=O)Nc3ccccc3C(F)(F)F)s2)CC1 -17.1%
CC(C)(C)OC(=O)N1CCC(c2c(C(=O)N3CCN(c4cccc(Cl)c4)CC3)cnn2-c2cccc(Cl)c2)CC1 -2.64%
CCc1ccc(NC(=O)C2CCCN(S(=O)(=O)c3ccc4[nH]c(=O)ccc4c3)C2)cc1 (configuration not stated) -27.8%
CCOC(=O)C1CCN(C(=O)Cn2nc(C)n3c(cc4c(OC)cccc43)c2=O)CC1 -19.9%
COc1cccc(C(c2sc3nc(-c4ccco4)nn3c2O)N2CCC(C)CC2)c1 (configuration not stated) -15.2%
O=C(CSc1ccnc(=O)[nH]1)NCc1ccc(F)cc1 -5.77%
COC(=O)c1sccc1S(=O)(=O)N1CCN(c2cccc(C)c2)C(C)C1 (configuration not stated) -15%
O=C(NCc1ccccc1)C1CCN(c2ncnc3c2nc2n3CCCCC2)CC1 1.14%
CCOC(=O)c1cccc(NC(=O)C2COc3ccc(OC)cc3C2)c1 (configuration not stated) -31%
Cc1ccc(CCNC(=O)C2CC(=O)N(CCc3ccc(C)cc3)C2)cc1 (configuration not stated) -17.4%
N=c1ccn2c(n1)O[C@H]1[C@@H](O)[C@@H](CO)O[C@H]12 7%
CCCCc1ccc(NC(=O)Cn2cnc3c(oc4ccccc43)c2=O)cc1 6.15%
